The chains are these.
B1: Caulobacter ParB omega fusion; a variant is named by its letters at X, in order, B8GW30 (parent)
chain: MESVVVGEPGMSEGRRGLGRGLSALLGEVDAAPAQAPGEQLGGSREAPIEILQRNPDQPRRTFREEDLEDLSNSIREKGVLQPILVRPSPDTAGEYQIVAGERAWRAAQRAGLKTVPIMVRELDDLAVLEIGIIENVQRADLNVLEEALSYKVLMEKFERTQENIAQTIGKSXSHVANXMRLLXLPDEVQSYLVSGELTAXHARAIAAAADPVALAKQIIEGGLSVRETEALARKAPNLSAGKSKGGRPPRVKDTDTQALESDLSSVLGLDVSIDHRGSTGTLTITYATLEQLDDLCNRLTRGI

In all, about 81,000 sequences were measured (“one-hybrid fitness for binding parS DNA”: median about -0.17, highest 2% from about 0.51 on). Some of the results follow. Bounds are passed on as bounds.

This assay covers variants of B1. As to the kind of experiment: one-hybrid fitness for binding parS DNA (scaled: cognate 1, non-cognate 0); higher = stronger binding. The following applies: with parS DNA site. The essentials:
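Fitness is the rescaled log change in variant-to-wild-type read ratio, measured by Illumina sequencing of plasmids before and after bacterial one-hybrid selection. The scale puts cognate at 1 and non-cognate at 0. Selection of Caulobacter ParB libraries, four specificity codons randomised, took place in E. coli USO with a HIS3 reporter, site 19 bp from the promoter, over 48 hours at 37°C on M9-minus-histidine with 0.1 mM IPTG and 5 mM 3-AT.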
Take WSDS: the “one-hybrid fitness for binding parS DNA” value is at most 0.2.
For DSTG the value was at most 0.2; for LAKN, at most 0.2; for CKPG, at most 0.2.
In the case of ARPS, the “one-hybrid fitness for binding parS DNA” value is at most 0.2.
In the case of YTWT, the “one-hybrid fitness for binding parS DNA” value is at most 0.2.
In the case of DHTS, the “one-hybrid fitness for binding parS DNA” value was at most 0.2.
To TAFV belongs at most 0.2.
As to QHLG, the “one-hybrid fitness for binding parS DNA” value is at most 0.2.
For FGMC the value was at most 0.2.
To GRQA belongs at most 0.2; to HQVG, at most 0.2; to SYMA, at most 0.2.
For YCRG the value was at most 0.2.
Turning to KINK, the “one-hybrid fitness for binding parS DNA” value is at most 0.2.
For the variant ESER, the “one-hybrid fitness for binding parS DNA” value was at most 0.2.
To ISKM belongs at most 0.2; to VYNW, at most 0.2.
To EQRS belongs at most 0.2.
On to TQKR, for which the “one-hybrid fitness for binding parS DNA” value was at most 0.2.
For SMPY, the “one-hybrid fitness for binding parS DNA” value was at most 0.2.
For the variant SRPA, the “one-hybrid fitness for binding parS DNA” value is at most 0.2.
KESL: the “one-hybrid fitness for binding parS DNA” value was at most 0.2.
For EHKT, the “one-hybrid fitness for binding parS DNA” value was at most 0.2.
In the case of SCVM, the “one-hybrid fitness for binding parS DNA” value was at most 0.2.
With KACR, the “one-hybrid fitness for binding parS DNA” value is at most 0.2.
As for VGRL, the “one-hybrid fitness for binding parS DNA” value is at most 0.2.
To DGSE belongs at most 0.2; to CSSV, at most 0.2.
Regarding ATSA, the “one-hybrid fitness for binding parS DNA” value is at most 0.2.
Take ANTE: the “one-hybrid fitness for binding parS DNA” value was at most 0.2.
Turning to RPWG, the “one-hybrid fitness for binding parS DNA” value is at most 0.2.
For the variant QARM, the “one-hybrid fitness for binding parS DNA” value is at most 0.2.
For YRMA, the “one-hybrid fitness for binding parS DNA” value is at most 0.2.
Regarding TRKS, the “one-hybrid fitness for binding parS DNA” value was at most 0.2.
NSGG: the “one-hybrid fitness for binding parS DNA” value is at most 0.2.
For the variant GDSV, the “one-hybrid fitness for binding parS DNA” value was at most 0.2.
Regarding SYPY, the “one-hybrid fitness for binding parS DNA” value is at most 0.2.
To GMEC belongs at most 0.2; to SDMS, at most 0.2.
Take FFNS: the “one-hybrid fitness for binding parS DNA” value was at most 0.2.
For LAHS, the “one-hybrid fitness for binding parS DNA” value was at most 0.2.
As for QSEV, the “one-hybrid fitness for binding parS DNA” value is at most 0.2.
Turning to NIPH, the “one-hybrid fitness for binding parS DNA” value was at most 0.2.
For KSPK, the “one-hybrid fitness for binding parS DNA” value is at most 0.2.
With IHAC, the “one-hybrid fitness for binding parS DNA” value was at most 0.2.
WLWT: the “one-hybrid fitness for binding parS DNA” value was at most 0.2.
For YWES, the “one-hybrid fitness for binding parS DNA” value was at most 0.2.
With RKYW, the “one-hybrid fitness for binding parS DNA” value is at most 0.2.
On to AMSI, for which the “one-hybrid fitness for binding parS DNA” value was at most 0.2.
Consider GMFV, for which the “one-hybrid fitness for binding parS DNA” value is at most 0.2.
Turning to QSYN, the “one-hybrid fitness for binding parS DNA” value was at most 0.2.
With DHKV, the “one-hybrid fitness for binding parS DNA” value is at most 0.2.
In the case of TTPT, the “one-hybrid fitness for binding parS DNA” value is at most 0.2.
As for CHFC, the “one-hybrid fitness for binding parS DNA” value is at most 0.2.
To GRHR belongs at most 0.2; to SWWT, at most 0.2; to DYWC, 0.205.
As to PTEF, the “one-hybrid fitness for binding parS DNA” value was at most 0.2.
To DASG belongs at most 0.2; to YQSL, at most 0.2; to FPMC, at most 0.2.
For QKFY the value was at most 0.2; for FIYG, at most 0.2; for ELGC, at most 0.2.
For QHIA, the “one-hybrid fitness for binding parS DNA” value is at most 0.2.
For LCQV, the “one-hybrid fitness for binding parS DNA” value was at most 0.2.
As to CRPF, the “one-hybrid fitness for binding parS DNA” value was at most 0.2.
For PGTT, the “one-hybrid fitness for binding parS DNA” value is at most 0.2.
With MIKS, the “one-hybrid fitness for binding parS DNA” value was at most 0.2.
To DLPR belongs at most 0.2; to GLAC, at most 0.2; to HCLS, at most 0.2.
AMQD: the “one-hybrid fitness for binding parS DNA” value is at most 0.2.
In the case of MCVS, the “one-hybrid fitness for binding parS DNA” value was at most 0.2.
For QLNF the value was at most 0.2.
With KSVY, the “one-hybrid fitness for binding parS DNA” value is at most 0.2.
To MVQP belongs 0.256; to TIAA, at most 0.2.
To WSKA belongs at most 0.2; to SLVA, at most 0.2; to TTAQ, at most 0.2.
Regarding SYLM, the “one-hybrid fitness for binding parS DNA” value was at most 0.2.
For THGM the value was at most 0.2; for QAHN, at most 0.2; for IRLM, at most 0.2.
For the variant TCLM, the “one-hybrid fitness for binding parS DNA” value was at most 0.2.
For LCES the value was at most 0.2.
With YKEC, the “one-hybrid fitness for binding parS DNA” value is at most 0.2.
To MTES belongs at most 0.2; to RPNA, at most 0.2; to SSGG, at most 0.2.
In the case of KWDS, the “one-hybrid fitness for binding parS DNA” value was at most 0.2.
VCWG: the “one-hybrid fitness for binding parS DNA” value is at most 0.2.
To ILHS belongs at most 0.2; to KVSC, at most 0.2; to VFPY, at most 0.2.
To PFQF belongs at most 0.2.

(Values after a collection of fitness landscapes (doi:10.1016/j.celrep.2020.107928).)
